Results from paper PMC4336329 (PLoS ONE, 2015).
Among all 310,000 compounds or so, about 2,200 (0.71%) showed an effect of 50% or more. The effect is printed as a negative number. Some of the results follow.

What follows are molecules tested against human ether-à-go-go-related gene (hERG) potassium channel (human, UniProt Q12809) (assay: primary screen, population patch clamp on CHO cells stably expressing hERG).
Chain of human ether-à-go-go-related gene (hERG) potassium channel (Q12809 whole entry, looked up): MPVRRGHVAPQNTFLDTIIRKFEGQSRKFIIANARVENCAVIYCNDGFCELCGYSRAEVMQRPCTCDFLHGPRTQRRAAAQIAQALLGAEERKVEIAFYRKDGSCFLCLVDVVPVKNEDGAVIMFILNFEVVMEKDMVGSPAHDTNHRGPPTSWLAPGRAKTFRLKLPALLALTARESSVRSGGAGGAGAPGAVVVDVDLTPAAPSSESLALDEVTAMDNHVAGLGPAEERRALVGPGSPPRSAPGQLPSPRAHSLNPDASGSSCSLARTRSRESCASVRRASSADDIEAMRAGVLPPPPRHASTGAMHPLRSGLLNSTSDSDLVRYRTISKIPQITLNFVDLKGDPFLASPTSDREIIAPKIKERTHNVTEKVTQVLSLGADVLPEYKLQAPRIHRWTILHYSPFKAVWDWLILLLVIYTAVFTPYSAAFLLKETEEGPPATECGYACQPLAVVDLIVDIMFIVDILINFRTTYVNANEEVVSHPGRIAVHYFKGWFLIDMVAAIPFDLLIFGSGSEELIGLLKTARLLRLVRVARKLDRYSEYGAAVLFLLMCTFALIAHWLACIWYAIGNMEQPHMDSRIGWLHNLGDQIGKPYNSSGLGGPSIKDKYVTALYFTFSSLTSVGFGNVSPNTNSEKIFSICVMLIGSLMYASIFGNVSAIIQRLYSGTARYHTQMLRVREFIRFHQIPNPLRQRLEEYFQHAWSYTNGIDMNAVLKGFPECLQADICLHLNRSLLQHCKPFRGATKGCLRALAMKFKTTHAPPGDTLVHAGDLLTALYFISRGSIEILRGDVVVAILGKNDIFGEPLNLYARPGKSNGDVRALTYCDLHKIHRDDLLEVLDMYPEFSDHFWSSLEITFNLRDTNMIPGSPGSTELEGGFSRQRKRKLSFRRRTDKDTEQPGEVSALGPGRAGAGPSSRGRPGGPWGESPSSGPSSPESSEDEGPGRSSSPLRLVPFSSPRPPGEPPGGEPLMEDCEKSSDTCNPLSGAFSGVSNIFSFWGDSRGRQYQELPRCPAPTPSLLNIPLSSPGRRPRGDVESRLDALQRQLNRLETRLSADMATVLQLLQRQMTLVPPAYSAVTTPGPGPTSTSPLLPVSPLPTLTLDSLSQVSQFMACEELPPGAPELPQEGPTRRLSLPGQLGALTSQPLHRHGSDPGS

SMILES | hERG current change (%, negative = inhibition) at 1uM
Cc1ccc(C(C)C)c(OCCCCCN2CCOCC2)c1 | 9.14%
O=C(NCc1ccco1)c1ccccc1F | 10.7%
Cc1nnc(NC(=O)c2ccc3ccccc3c2)o1 | 12.9%
CCOc1ccc2nc(NCCCNC(=O)c3cc(OC)c(OC)c(OC)c3)c(C#N)cc2c1 | -8.59%
O=C(N/N=C/c1ccncc1)C1CC1(c1ccccc1)c1ccccc1 (stereo not shown) | 5.86%
CCCNC(=O)c1cccc(COCC(F)(F)F)c1 | 0.115%
CCOc1ccccc1CN1CCNC(=O)C1CC(=O)NCCN1CCOC1=O (stereo not shown) | 14.7%
O=C(N/N=C/c1c[nH]c2ccccc12)c1ccc2c(c1)OCCO2 | 1.84%
O=C(O)C1CCCCC1C(=O)NCc1ccccn1 (stereo not shown) | 15%
COc1ccc(NC(=O)COC(=O)CCCN2C(=O)c3ccccc3C2=O)cc1Cl | -7.27%
O=C(CN1CCCCCCC1)N/N=C/c1ccccc1F | -2.15%
Cc1[nH]c2ccc(C(=O)NCCCN3CCOCC3)cc2c1C | 12%
CCCCOc1ccc(S(=O)(=O)N2CCCCC2)cc1 | 6.97%
Cc1cc(NC(=O)Cn2nnc(-c3ccccc3NC(=O)c3ccccc3F)n2)no1 | 14.1%
CC(=O)c1cc2c(cc1NC(=O)CSc1ccc(S(=O)(=O)N(C)C)cn1)OCO2 | 10.3%
CC(=O)CSc1nsc(SCC(C)=O)c1C#N | 11.1%
CC(=O)N1C(c2ccccc2)CC(=O)OC1c1ccc2c(c1)OCO2 (stereo not shown) | 9.84%
O=C(/C=C/c1ccc(Cl)cc1)N1CCN(c2ccccc2[N+](=O)[O-])CC1 | -33.6%
CC(=O)c1ccc(OCc2cc(C(=O)N(C)Cc3nc4c(C)cccc4[nH]3)no2)cc1 | 4.57%
O=C(CNCCCO)Nc1cc(C(F)(F)F)cc(NC(=O)CNCCCO)c1Cl | 9.02%
CCC(CC)c1nnc(NC(=O)c2cccnc2SC)s1 | 9.37%
C=CCN1C(=O)/C(=c2\sc3nc(=O)c(Cc4ccccc4)nn3c2=O)c2ccccc21 | 11.5%
N#C/C(=C(/O)c1ccc2c(c1)OCO2)c1nc2cc(C(F)(F)F)ccc2s1 | 7.79%
CC(C)(C)NC(=O)C(c1ccccn1)N(C(=O)C1CSC(=O)C1)c1ccccc1F (stereo not shown) | 3.73%
Cc1ccc(-n2nnc3c(=O)n(Cc4cc(C)ccc4C)cnc32)cc1 | 11.1%
O=C(c1ccccc1NS(=O)(=O)c1ccc(Br)cc1)N1CCOCC1 | 2.86%
CCc1nc(SCC(=O)Nc2ccccc2OC)c2c(C)c(C)sc2n1 | 12.6%
Cc1ccc(NC(=O)COc2coc(CN3CCc4ccccc43)cc2=O)cc1Cl | 16%

SMILES | hERG current change (%, negative = inhibition) at 1uM
CC1CCC2C(=O)N(c3ccccc3OC(=O)c3ccccc3F)C(=O)C2C1 (stereo not shown) | 11%
O=c1cc(N2CCCCC2)nc2n1CCCS2 | 13.8%
CN1CCc2c(sc3c2C(=O)NC(c2ccc(-c4ccc(Cl)cc4)o2)N3)C1 (stereo not shown) | 9.32%
CCCCn1c(SCC(=O)c2ccc(O)cc2O)nc2cc(S(N)(=O)=O)ccc21 | -11.7%
CCOC(=O)N1CCN(C(=O)/C(=C/c2ccc(OC)cc2)NC(=O)c2ccccc2)CC1 | -27.1%
Cc1ccc(C(=O)OCC(=O)NC(=O)c2ccccc2)o1 | 9.2%
Cc1ccc(NC(=O)Cn2cccc2C2=NC(c3ccccc3)CO2)c(C)c1 (stereo not shown) | 3.9%
CCCCNc1ccc(C(CC(N)=O)NC(=O)c2ccccc2)cc1[N+](=O)[O-] (stereo not shown) | 1.7%
CC(C)C(NC(=O)c1ccccc1)C(=O)OCC(=O)N1CCN(c2ccccc2)CC1 (stereo not shown) | 0.354%
O=C(Oc1ccc(NC(=O)c2cc3c(cc2Br)OCO3)cc1)c1ccccc1 | 12.4%
CCCCCCOc1ccc(N2C(=O)CC(N3CCN(CCN=CC4C(=O)CC(C)(C)CC4=O)CC3)C2=O)cc1 (stereo not shown) | 6.82%
C/C(N)=C(/C#N)C(=O)COC(=O)C(c1ccccc1)c1ccccc1 | 12.5%
Cc1cccc(NC(=O)Nc2ccccc2)n1 | 5.39%
COc1ccc2nc(SC)cc(C)c2c1 | 15.4%
COc1ccc(OCCNC(=O)c2cc(C3CC3)nc3c2cnn3C(C)C)cc1 | 8.52%
CSc1nnc2c(n1)c(C)nn2-c1ccc(C)cc1 | -0.748%
COc1ccc(-c2[nH]ncc2/C=N/NC(=O)c2cc(Br)ccc2O)c(OC)c1 | 20.9%
CC(C)COC(=O)C(C#N)c1nc2ccccc2nc1N1CCN(Cc2ccccc2)CC1 (stereo not shown) | 7.15%
CC1(C)CC(=O)CC(C2(O)C(=O)N(Cc3ccccc3)c3ccccc32)O1 (stereo not shown) | 10%
CCN(CC)S(=O)(=O)c1ccc2[nH]c(=O)cc(C(=O)NCC(c3ccco3)N3CCCC3)c2c1 (stereo not shown) | 5.57%
CC1=Nc2ccc(C)cc2/C1=C/c1c(N)n2oc(C)cc2nc1=O | 13.8%
CC(C)C[C@H](NC(=O)Nc1cccc(Br)c1)C(=O)O | 14.1%
COc1ccc(CCC(=O)Nc2ccc(S(=O)(=O)Nc3nccc(C)n3)cc2)cc1 | 24.4%
NC(=O)c1ccc(NC(=O)COC(=O)CCc2ccc(S(=O)(=O)N3CCCCC3)cc2)cc1 | 8.41%
Cc1nn(Cc2c(F)c(F)c(F)c(F)c2F)c(C)c1NC(=O)c1ccc(COc2ccc(Cl)cc2Cl)o1 | 18.8%
COc1ccccc1C(OC(=O)c1ccco1)C(=O)NC(C)(C)C (stereo not shown) | 12.8%
S=C(Nc1nc2c(s1)CCCC2)NC1CC1 | 9.28%
